In US20240124563A1 (NANJING ZAIMING PHARMACEUTICAL, published 2024):

B1: NB148-46 VHH-hFc (Fc fusion)
chain: EVQLVESGGGLVQAGGSLRLSCAASGSTFSSYPMGWYRQAPGKQRELVAAISSGGSTNYADSVKGRFTISRDNAKNTVYLQMNSLKPEDTAVYYCNTRSPRVPNDSWGQGTQVTVSS[human IgG1 Fc with changes not written out]
B2: NB148-88 VHH-hFc (Fc fusion)
chain: QLQLVESGGGLVQPGGSHRLSCAVSVSTFTRYAMRWYRQAPGKEREWLTSIYSDGSSAYADSVKDRFTISLDNAKNMLYLQMNSLKPEDTAVYYCNANVDSKAYWGQGTQVTVAS[human IgG1 Fc with changes not written out]
B3: NB148-35 VHH-hFc (Fc fusion)
chain: EVQVVESGGGLVQPGGSLRLSCGVSGSILALNTMRWYRQTPGNQREWVASIYSSGGSTGYADSVKGRFIISRDSAKNMMSLQMNSLKSEDTAVYYCNVQTPLNVYWGQGTQVTVSS[human IgG1 Fc with changes not written out]
B4: NB149-31 VHH-hFc (Fc fusion)
chain: EVQVVESGGGLVQPGGSLRLSCAASGITFSGNYGGWFRQAPGEQRELVASMSSALGTKYADPVKGRFTISTDTAKNTVDLQMNSLGPEDTAVYYCYARVRLSRGGWGSEYWGQGTQVTVSS[human IgG1 Fc with changes not written out]
B5: NB148-25 VHH-hFc (Fc fusion)
chain: QVQLVESGGGLVQAGGSLRLSCAASGSTFGRIVMRWYRQAQGKQREWVASIYDSGSTSYSDPVQGRFTISRDNARNTVYLQMNSLRPADTAVYYCNLGTALSSYWGQGTQVTVSS[human IgG1 Fc with changes not written out]
B6: NB149-70 VHH-hFc (Fc fusion)
chain: QVQLVESGGGLVQPGGSLRLSCAASGSIFSGNAVAWYRQAPGKEREAVAVITRDGDTKYADSVKGRFTISRYNAKNIAYLQMNSLKPEDTAVYYCNTARGAAVDSWGQGTQVTVSS[human IgG1 Fc with changes not written out]
B7: NB148-27 VHH-hFc (Fc fusion)
chain: EVQVVESGGGLVQAGASLRLSCASSGRTISPIAMAWFRQAPGKERELVAGLTWTGRTYYSDSVKGRFTISRDNAKNTVYLQMDSLKFEDTAVYFCAAGDNPDRRGSSWSSSSVYEYWGQGTQVTVSS[human IgG1 Fc with changes not written out]
B8: NB149-95 VHH-hFc (Fc fusion)
chain: QVQLVESGGGLVQAGGSLRLSCTASESGFSANYMGWYRQEAPGKERELVATINRFGSTNYADSVKGRFTISRDNAKNTVYLQMNSLKSEDTGVYYCRIMRPGNWYWGQGTQVTVSS[human IgG1 Fc with changes not written out]
B9: NB149-34 VHH-hFc (Fc fusion)
chain: QLQLVESGGGLVQPGGSLRLSCAASGSVNSITAMGWYRQGPGNERELVAVITDRGRASYADSVKGRFAISMDNDKHTVYLQMDSLKPEDTAVYYCNAHRRTWPHPGDYWGQGTQVTVSS[human IgG1 Fc with changes not written out]

target: T1, human MSLN-FL-his protein (human, UniProt Q13421 296-580); assay: competitive ELISA on MSLN-FL-His; other antibody: NB148-88 (3.m6)
T1 construct: Made in HEK293E cells, purified on nickel column; also called hMSLN-FL-his; not shown: histidine tag

Row | inhibition rate [%] | Binder
1 | 6 | B1
2 | 68 | B2
3 | 92 | B3
4 | -80 | B4
5 | 89 | B5
6 | 26 | B6
7 | -66 | B7
8 | 3 | B8
9 | -14 | B9

target: T1, human MSLN-FL-his protein; assay: competitive ELISA on MSLN-FL-His; other antibody: NB148-13 (3.m1)
T1 sequence (Q13421 other isoform, or with tags, fused parts or gaps): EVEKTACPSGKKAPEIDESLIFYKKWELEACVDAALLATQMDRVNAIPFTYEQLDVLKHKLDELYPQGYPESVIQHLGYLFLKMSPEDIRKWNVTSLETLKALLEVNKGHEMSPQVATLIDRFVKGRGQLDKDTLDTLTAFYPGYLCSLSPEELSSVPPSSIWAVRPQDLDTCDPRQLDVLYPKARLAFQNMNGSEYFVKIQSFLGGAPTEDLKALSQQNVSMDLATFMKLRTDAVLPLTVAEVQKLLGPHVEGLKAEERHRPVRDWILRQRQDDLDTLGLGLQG

Row | inhibition rate [%] | Binder
10 | -13 | B1
11 | 77 | B2
12 | 79 | B3
13 | 34 | B4
14 | 89 | B5
15 | 29 | B6
16 | -108 | B7
17 | 8 | B8
18 | -7 | B9

target: T1, human MSLN-FL-his protein; assay: competitive ELISA on MSLN-FL-His; other antibody: NB148-27 (3.m3)

Row | inhibition rate [%] | Binder
19 | 75 | B1
20 | 23 | B2
21 | -12 | B3
22 | 95 | B4
23 | 48 | B5
24 | 67 | B6
25 | 59 | B7
26 | 39 | B8
27 | 56 | B9

target: T1, human MSLN-FL-his protein; assay: competitive ELISA on MSLN-FL-His; other antibody: Tab142 (R1) (3.m16)

Row | inhibition rate [%] | Binder
28 | 86 | B1
29 | 14 | B2
30 | -129 | B3
31 | 97 | B4
32 | -28 | B5
33 | 42 | B6
34 | 75 | B7
35 | 9 | B8
36 | 65 | B9

target: T2, human MSLN full-length protein, recombinant, on CHO-K1 or HEK293T cells (human, UniProt Q13421 296-598); assay: competitive FACS on CHO-K1-human MSLN-2C8 cells vs Biotin-Tab131; competitor at 0.00256 nM
T2 construct: The background says that the precursor is cleaved by furin to the mature membrane form; also called hMSLN; CHO-K1-hMSLN-2C8

Row | MFI of Biotin-Tab131 | Binder
37 | 13900 | B2
38 | 13800 | B3
39 | 13300 | B5

target: T2, human MSLN full-length protein, …; assay: competitive FACS on CHO-K1-human MSLN-2C8 cells vs Biotin-Tab131; competitor at 1.6 nM

Row | MFI of Biotin-Tab131 | Binder
40 | 12200 | B2
41 | 11700 | B3
42 | 11600 | B5

target: T1, human MSLN-FL-his protein; assay: competitive ELISA on MSLN-FL-His; other antibody: NB149-70 (3.m9)

Row | inhibition rate [%] | Binder
43 | 81 | B1
44 | -89 | B2
45 | -24 | B3
46 | 88 | B4
47 | 38 | B5
48 | 34 | B6
49 | 83 | B7
50 | 19 | B8
51 | 59 | B9

target: T2, human MSLN full-length protein, …; assay: competitive FACS on CHO-K1-human MSLN-2C8 cells vs Biotin-Tab131; competitor at 8 nM

Row | MFI of Biotin-Tab131 | Binder
52 | 9390 | B2
53 | 8840 | B3
54 | 7570 | B5

target: T2, human MSLN full-length protein, …; assay: competitive FACS on CHO-K1-human MSLN-2C8 cells vs Biotin-Tab131; competitor at 40 nM

Row | MFI of Biotin-Tab131 | Binder
55 | 2050 | B2
56 | 1530 | B3
57 | 977 | B5

target: T2, human MSLN full-length protein, …; assay: competitive FACS on CHO-K1-human MSLN-2C8 cells vs Biotin-Tab131; competitor at 200 nM

Row | MFI of Biotin-Tab131 | Binder
58 | 158 | B2
59 | 115 | B3
60 | 124 | B5

target: T1, human MSLN-FL-his protein; assay: competitive ELISA on MSLN-FL-His; other antibody: NB148-35 (3.m4)

Row | inhibition rate [%] | Binder
61 | -10 | B1
62 | 53 | B2
63 | 86 | B3
64 | -71 | B4
65 | 90 | B5
66 | 23 | B6
67 | -28 | B7
68 | 1 | B8
69 | -12 | B9

target: T2, human MSLN full-length protein, …; assay: competitive FACS on CHO-K1-human MSLN-2C8 cells vs Biotin-Tab131; competitor at 0.064 nM

Row | MFI of Biotin-Tab131 | Binder
70 | 12600 | B2
71 | 13000 | B3
72 | 12500 | B5

target: T2, human MSLN full-length protein, …; assay: competitive FACS on CHO-K1-human MSLN-2C8 cells vs Biotin-Tab131; competitor at 0.0128 nM

Row | MFI of Biotin-Tab131 | Binder
73 | 11700 | B2
74 | 11900 | B3
75 | 11600 | B5

target: T2, human MSLN full-length protein, …; assay: competitive FACS on CHO-K1-human MSLN-2C8 cells vs Biotin-Tab142; competitor at 0.00128 nM

Row | MFI of Biotin-Tab142 | Binder
76 | 42600 | B1
77 | 41100 | B2
78 | 41000 | B3
79 | 40500 | B4
80 | 42100 | B5
81 | 40600 | B6
82 | 41000 | B7
83 | 42200 | B8
84 | 40800 | B9

target: T2, human MSLN full-length protein, …; assay: competitive FACS on CHO-K1-human MSLN-2C8 cells vs Biotin-Tab131; competitor at 0.32 nM

Row | MFI of Biotin-Tab131 | Binder
85 | 12600 | B2
86 | 12000 | B3
87 | 11700 | B5

target: T1, human MSLN-FL-his protein; assay: competitive ELISA on MSLN-FL-His; other antibody: NB149-95 (3.m11)

Row | inhibition rate [%] | Binder
88 | 81 | B1
89 | -22 | B2
90 | -187 | B3
91 | 93 | B4
92 | 34 | B5
93 | 52 | B6
94 | 82 | B7
95 | 13 | B8
96 | 62 | B9

target: T2, human MSLN full-length protein, …; assay: FACS, CHO-K1-hMSLN-2C8 cells

Row | EC50 [nM] | Max MFI | Binder
97 | 1.69 | 10900 | B1
98 | 2.55 | 13000 | B2
99 | 3.65 | 13600 | B3
100 | 1.85 | 11300 | B4
101 | 3.82 | 13500 | B5
102 | 2.22 | 11300 | B6
103 | 2.29 | 10600 | B7
104 | 2.05 | 12800 | B8
105 | 2.23 | 11700 | B9
